Measured values from article PMC4336329 (PLoS ONE, 2015).
Hit rate of the full screen: of about 310,000 compounds, about 2,200 (0.71%) showed an effect of 50% or more. The effect is printed as a negative number. The list shows a part of the results.

target: human ether-à-go-go-related gene (hERG) potassium channel (human, UniProt Q12809); test: primary screen, population patch clamp on CHO cells stably expressing hERG
Sequence (Q12809 whole entry, looked up): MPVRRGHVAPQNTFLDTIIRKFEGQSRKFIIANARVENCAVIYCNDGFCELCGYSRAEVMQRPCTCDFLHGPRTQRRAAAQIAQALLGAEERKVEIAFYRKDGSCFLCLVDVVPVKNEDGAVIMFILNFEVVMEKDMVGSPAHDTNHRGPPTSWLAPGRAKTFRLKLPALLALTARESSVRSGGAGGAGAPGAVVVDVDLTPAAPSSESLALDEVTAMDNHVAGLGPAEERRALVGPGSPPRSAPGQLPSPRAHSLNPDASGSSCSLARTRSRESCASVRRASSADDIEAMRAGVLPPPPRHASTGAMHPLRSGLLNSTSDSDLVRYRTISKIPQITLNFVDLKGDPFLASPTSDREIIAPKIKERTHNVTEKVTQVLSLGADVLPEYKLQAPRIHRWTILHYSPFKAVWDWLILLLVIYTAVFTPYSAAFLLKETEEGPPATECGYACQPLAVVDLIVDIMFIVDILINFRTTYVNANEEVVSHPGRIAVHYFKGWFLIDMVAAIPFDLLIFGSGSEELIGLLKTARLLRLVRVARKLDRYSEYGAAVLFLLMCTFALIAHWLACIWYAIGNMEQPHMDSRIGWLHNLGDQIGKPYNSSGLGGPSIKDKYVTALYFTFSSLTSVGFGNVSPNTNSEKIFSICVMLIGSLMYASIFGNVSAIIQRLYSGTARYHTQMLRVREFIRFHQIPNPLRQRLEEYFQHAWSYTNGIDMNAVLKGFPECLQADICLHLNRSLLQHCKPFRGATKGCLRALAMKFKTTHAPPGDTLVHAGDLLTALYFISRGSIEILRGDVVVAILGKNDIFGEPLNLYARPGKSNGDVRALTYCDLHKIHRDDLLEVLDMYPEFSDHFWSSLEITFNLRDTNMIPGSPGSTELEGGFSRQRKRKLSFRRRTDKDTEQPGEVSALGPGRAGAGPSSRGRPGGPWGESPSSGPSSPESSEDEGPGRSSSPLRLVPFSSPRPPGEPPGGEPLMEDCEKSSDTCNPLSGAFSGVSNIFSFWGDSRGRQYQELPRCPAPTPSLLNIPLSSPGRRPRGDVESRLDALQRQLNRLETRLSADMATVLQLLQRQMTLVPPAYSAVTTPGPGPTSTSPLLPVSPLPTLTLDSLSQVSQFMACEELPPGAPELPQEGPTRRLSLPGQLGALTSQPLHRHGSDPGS

Compound	hERG current change (%, negative = inhibition) at 1uM
Cc1ccc(NC(=O)CCS(=O)(=O)c2ccc3c(c2)NC(=O)C(C)S3)cc1Cl (stereo not shown)	15%
Nc1nnnn1/N=C/c1ccc(O)cc1	13.8%
Cc1ccc2c(c1)c1c(n2CCc2ccc(C)nc2)CCN(C)C1	8.94%
O=C(Nc1ccccc1N1CCCC1)c1ccc2ccccc2c1	13.3%
COC(=O)c1[nH]c(C)c(/C(O)=C2\C(=O)C(=O)N(CCN(C)C)C2c2ccccc2OC)c1C (stereo not shown)	13.8%
Cc1cccc(NC(=O)C2CCN(S(C)(=O)=O)CC2)c1C	3.87%
Cn1c(=O)[nH]c(=O)c2c1nc(NCc1ccco1)n2Cc1ccccc1Cl	9.03%
COCCc1nc2ccc(C(=O)N(C)Cc3cccc(-n4nc(C)cc4C)c3)cc2o1	-4.79%
COc1cccc(CN2CCCC(C(=O)c3ccccc3SC)C2)c1O (stereo not shown)	-76.9%
COc1cccc(N2CCN(C(=O)c3cc4cc(Cl)ccc4[nH]3)CC2)c1	9.88%
CNc1nc(-c2ccccc2)nc(-c2ccc(OC)cc2)c1C#N	8.86%
O=c1[nH]c2c(s1)C(c1ccc(O)cc1)C1C3CCC(C3)C1S2 (stereo not shown)	8.69%
C(#Cc1ccccc1)Cn1nnc2ccccc21	4.3%
Cc1cc(OC(C(=O)O)c2ccccc2)c2c(C)c(Cc3ccccc3)c(=O)oc2c1 (stereo not shown)	8.89%
Cc1c(C(=O)NC2CC2)oc2ccc(S(=O)(=O)N3CCCCCC3)cc12	10.7%
COc1cc(C(C)=O)ccc1OC(=O)CN1C(=O)c2ccccc2C1=O	13.9%
COc1ccc(/C=N/NC(=O)C2(O)c3ccccc3-c3ccccc32)cc1	16.2%
CC1CCCC(NC(=O)CCNC(=O)c2ccc([N+](=O)[O-])cc2)C1C (stereo not shown)	-7.79%
O=C(NCc1ccccc1)c1ccc(CS(=O)Cc2ccc(Cl)cc2)o1 (stereo not shown)	11.7%
C(#CCN1CCOCC1)COC/C=C/c1ccccc1.Cl	-0.386%
O=C(O)CCC(NS(=O)(=O)c1ccc(-c2ccccc2)cc1)C(=O)O (stereo not shown)	12.5%
O=C(NN1CCOCC1)c1cc(-c2cccc(Cl)c2)nc2ccccc12	-3.86%

Compound	hERG current change (%, negative = inhibition) at 1uM
O=C(/C=C/c1ccccc1)NCCc1nc2ccccc2[nH]1	1.93%
CCCn1c(Nc2ccc(Cl)cc2)nc2ccccc21	7.42%
O=NN(CCc1ccncc1)c1ccc(OCc2ccccc2)cc1	-11.4%
Cc1cc2c(c(=O)n1CC1CCCO1)C(c1ccc3c(c1)OCO3)C(C#N)=C(N)O2 (stereo not shown)	-3.61%
O=C(O)CCn1cc(/C=C/C(=O)c2ccc(Cl)cc2)c(-c2cccc(Br)c2)n1	14.7%
CCc1ccccc1Nc1nc(N)nc(COC(=O)CCS(=O)(=O)c2ccccc2)n1	2.48%
N#C/C(=C/c1cccs1)c1nc2ccccc2[nH]1	4.74%
C[n+]1ccn(CC(=O)c2cc(C(C)(C)C)c(O)c(C(C)(C)C)c2)c1.[Br-]	19%
CN(C)c1ccc(C(CNS(=O)(=O)c2ccc([N+](=O)[O-])cc2)N2CCOCC2)cc1 (stereo not shown)	-2.98%
Cc1nn(Cc2c(Cl)cccc2Cl)c(Cl)c1C(=O)O	11.1%
COc1ccc(S(=O)(=O)NCCCN2CCCC2=O)c(OC)c1	8.09%
COC(=O)C1(c2ccccc2)NC(c2cccs2)C2C(=O)N(C)C(=O)C21 (stereo not shown)	-2.17%
O=C(Nc1ccc(S(=O)(=O)NC2=NCCCCC2)cc1)C1COc2ccccc2O1 (stereo not shown)	15.5%
Cc1ccccc1Nc1ncnc2c1cnn2C	8.93%
O=C(N/N=C/c1cccnc1)c1ccc(CN2c3cccc4cccc(c34)S2(=O)=O)cc1	13.6%
O=[N+]([O-])c1cc(/C=N/Nc2nc(N3CCOCC3)nc(N3CCOCC3)n2)ccc1Cl	9.23%
Cc1ccc(NC(=O)CN(C)C(=O)COC(=O)CCS(=O)(=O)c2ccc(C)cc2)cc1	6.79%
COc1cccc(-c2ccc(NC(=O)C3CCCN(Cc4ccc(CO)o4)C3)cc2)c1 (stereo not shown)	6.28%
Cc1cccc(CC(=O)NC2CCS(=O)(=O)C2)c1 (stereo not shown)	0.686%
Cc1ccc(NS(=O)(=O)c2cc(-c3cc(C)no3)ccc2C(C)C)nc1	12.2%
O=C(Nc1ccc(S(=O)(=O)Nc2ncccn2)cc1)c1ccc(Br)s1	5.42%
